Some of the results follow. At the low end of the ranking the order means little.
Target: T1, GST-Rok-C97-191 (UniProt O34857)
T1 sequence: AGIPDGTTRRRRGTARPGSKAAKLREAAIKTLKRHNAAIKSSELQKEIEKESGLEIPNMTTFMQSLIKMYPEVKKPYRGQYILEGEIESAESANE
Assay: protein binding microarray;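 also: rank score from −0.5 (least bound) to 0.5 (best bound)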
Conditions: Rok is a gene silencer of Bacillus subtilis; high values mean tight binding; most listed sequences are background and not binding sites; double strand, one strand shown

| Sequence | binding signal |
| --- | --- |
| CATTTTAA | 0.032 E-score |
| CACTCACA | 0.0646 E-score |
| AAACTTAG | 0.128 E-score |
| ACCTAGTG | 0.0373 E-score |
| CCACTCCC | -0.152 E-score |
| AGACTAGC | 0.126 E-score |
| ATATAGTG | 0.253 E-score |
| AGGGTCGG | -0.361 E-score |
| GGTTAACA | 0.0323 E-score |
| AGCGTAAA | 0.0698 E-score |
| AAGGCCTT | -0.173 E-score |
| CGCTGTCC | -0.177 E-score |
| CCTGAGTA | -0.0503 E-score |
| ACGAAGCT | 0.0234 E-score |
| ACTGAAAA | 0.114 E-score |
| GAGTCGCC | -0.256 E-score |
| CTTGTTGC | 0.0629 E-score |
| CATTAGCA | -0.14 E-score |
| CGGTTCGC | -0.0901 E-score |
| ACTTGTTG | 0.0944 E-score |
| CCAATGCA | -0.0289 E-score |
| CCGTTGGA | -0.177 E-score |
| GATGCTCA | -0.118 E-score |
| CCCAGGGG | -0.203 E-score |
| CGACTCGC | -0.217 E-score |

| Sequence | binding signal |
| --- | --- |
| CGGGGGTC | -0.259 E-score |
| CCGGCGAC | -0.28 E-score |
| ATAGAGAT | 0.109 E-score |
| ACACATTC | -0.0305 E-score |
| ATCAGCAC | -0.0279 E-score |
| AACACTGC | 0.119 E-score |
| GCGGTAAA | 0.0639 E-score |
| CGCTCAGC | -0.162 E-score |
| ACTATGCC | -0.024 E-score |
| ATGGGGGC | -0.207 E-score |
| CTGTCAGC | -0.258 E-score |
| AATAGAAC | 0.151 E-score |
| ACGGTAGC | 0.0805 E-score |
| GTTTAAAA | -0.0408 E-score |
| CCCTCAGA | -0.192 E-score |
| ACCCCACA | -0.105 E-score |
| TAAATACA | 0.225 E-score |
| CCTCCGGC | -0.324 E-score |
| GCGGTGAC | -0.243 E-score |
| CAACGCGG | -0.206 E-score |
| ACTGCAAT | 0.0395 E-score |
| CCAGTCCG | -0.282 E-score |
| AAGCCGGT | -0.131 E-score |
| AGCAGACA | -0.0555 E-score |
| CCGCTAAG | -0.144 E-score |

| Sequence | binding signal |
| --- | --- |
| CTTACGCA | -0.0174 E-score |
| GAGTTGCC | -0.139 E-score |
| CACCTTCG | -0.23 E-score |
| CAAGAATA | 0.000184 E-score |
| TCGGCTAA | 0.101 E-score |
| CTCCCCGC | -0.241 E-score |
| ACTACCCA | 0.332 E-score |
| AGGAGGGG | -0.316 E-score |
| ATCGGCAT | 0.15 E-score |
| CTGCGTTC | -0.258 E-score |
| CATAATAC | 0.191 E-score |
| CCTGCCAC | -0.24 E-score |
| AGCACGCC | -0.0145 E-score |
| CGTCAACG | -0.152 E-score |
| CGAATTAA | 0.0451 E-score |
| CCCCGTTC | -0.0965 E-score |
| CTCCCAGC | -0.185 E-score |
| AATTTTCC | 0.259 E-score |
| ACGACCAA | 0.00408 E-score |
| CCCTTCAG | -0.144 E-score |
| ACGTGGCT | -0.0852 E-score |
| CAGATGCA | -0.219 E-score |
| AGATGGGA | 0.202 E-score |
| CTCGCACC | -0.0842 E-score |
| GGTAATGA | 0.129 E-score |

| Sequence | binding signal |
| --- | --- |
| ATAGCCCA | 0.0263 E-score |
| CAAAAATA | 0.0976 E-score |
| ACTAAGGG | -0.125 E-score |
| GCAAATGC | 0.127 E-score |
| GGAAGAGA | -0.124 E-score |
| GAAACCTC | -0.201 E-score |
| ATGCGGCC | -0.273 E-score |
| ACGGTGGG | -0.152 E-score |
| AATAGTCC | 0.151 E-score |
| GCAGTTGA | 0.0646 E-score |
| CCTAATGA | -0.186 E-score |
| AATGTGTA | 0.204 E-score |
| GGAGTTAA | -0.0411 E-score |
| CTGTATCA | 0.0261 E-score |
| CTACAGGA | -0.0131 E-score |
| ATAGACTA | 0.176 E-score |
| AAATTGCC | 0.0994 E-score |
| AACTTCGC | 0.206 E-score |
| AATGATTG | 0.00546 E-score |
| AACGCCTA | 0.12 E-score |
| ATCACGCA | 0.122 E-score |
| GAGAACAC | 0.197 E-score |
| CCTCGCGA | -0.26 E-score |
| CTTAATGA | -0.162 E-score |
| CATCTCGC | 0.00983 E-score |

| Sequence | binding signal |
| --- | --- |
| CCAGCGAG | -0.055 E-score |
| CTAATGGC | -0.0853 E-score |
| TAATTGTA | 0.326 E-score |
| ACACCCGA | 0.0729 E-score |
| ATACTGCC | -0.00169 E-score |
| TGTATACA | 0.37 E-score |
| AACGACAA | 0.114 E-score |
| GCCGAAGA | -0.0317 E-score |
| CGCCTTCC | -0.257 E-score |
| CTTTGGCA | -0.184 E-score |
| GCTGAAAA | -0.094 E-score |
| ATCCCGCA | -0.0982 E-score |
| CCAAACTA | 0.376 E-score |
| CTTTCCAC | 0.0598 E-score |
| GCGATCCA | -0.01 E-score |
| CCGTGTTA | 0.0658 E-score |
| AATACGTA | 0.287 E-score |
| ATAAGAAA | 0.157 E-score |
| CTCGTCAC | -0.0855 E-score |
| ATGAATAG | 0.0385 E-score |
| GTGAGAAC | 0.155 E-score |
| AGTATTTG | 0.194 E-score |
| GTCGAGAA | -0.0153 E-score |
| ATTCTCTG | -0.115 E-score |
| GACTTGAC | -0.254 E-score |

| Sequence | binding signal |
| --- | --- |
| CAAAGCTG | -0.0247 E-score |
| ATGCCTGC | -0.108 E-score |
| ATTAGGAA | -0.056 E-score |
| AGCAAAAA | -0.107 E-score |
| CGGCGGAA | -0.234 E-score |
| ACGCGAGC | 0.00341 E-score |
| ACCGCCAG | -0.217 E-score |
| GAAAAAGC | -0.183 E-score |
| ACGCGAAG | -0.103 E-score |
| AATGGTGC | -0.0745 E-score |
| ATCAACTC | 0.124 E-score |
| CTTCAAAC | -0.0291 E-score |
| AATGGATC | -0.216 E-score |
| ATAATACC | 0.197 E-score |
| CGCCTATA | 0.0489 E-score |
| AGCGTAAC | 0.0837 E-score |
| CCCAACAG | -0.0551 E-score |
| CCCGTAGA | -0.158 E-score |
| CGGCTTTC | -0.233 E-score |
| CCCTTTGC | -0.268 E-score |
| ACAACACA | -0.0665 E-score |
| TCGCCACA | -0.0452 E-score |
| CCCAATAA | -0.0896 E-score |
| GCCGCGAC | -0.359 E-score |
| CGTATCGA | -0.0144 E-score |

| Sequence | binding signal |
| --- | --- |
| AGGAAAGA | -0.128 E-score |
| GAGCGGGA | -0.246 E-score |
| AAGGGAGG | -0.192 E-score |
| ACGTGCTC | -0.238 E-score |
| GGGGGGGA | -0.333 E-score |
| ATATTCCG | 0.273 E-score |
| CGCCTAGC | -0.0541 E-score |
| ATCGTTTA | 0.0197 E-score |
| AATTATGA | 0.113 E-score |
| AATCCCCC | -0.262 E-score |
| CATAAGGG | -0.0186 E-score |
| TCATCTCA | -0.135 E-score |
| AATAGATC | 0.161 E-score |
| CCATGTCG | -0.0506 E-score |
| ACGGGCCT | -0.248 E-score |
| GGTCAGAA | -0.0853 E-score |
| AGCATAGA | -0.0904 E-score |
| TGCATGCA | -0.11 E-score |
| AGTGCATC | -0.126 E-score |
| ACCGCCTA | -0.103 E-score |
| ACGTCAGG | -0.225 E-score |
| AGGTGGTA | 0.122 E-score |
